Assay results: paper PMC4336329 (PLoS ONE, 2015)
The campaign covered roughly 310,000 compounds. About 14,000 (4.5%) showed an effect of 50% or more. The effect is printed as a negative number. This is one part of the list.

target: human ether-à-go-go-related gene (hERG) potassium channel (human, UniProt Q12809); experiment: primary screen, population patch clamp on CHO cells stably expressing hERG
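Further: peak tail current of the secondary pulse compared with the same well before compound.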

Chain of human ether-à-go-go-related gene (hERG) potassium channel (Q12809 whole entry, looked up): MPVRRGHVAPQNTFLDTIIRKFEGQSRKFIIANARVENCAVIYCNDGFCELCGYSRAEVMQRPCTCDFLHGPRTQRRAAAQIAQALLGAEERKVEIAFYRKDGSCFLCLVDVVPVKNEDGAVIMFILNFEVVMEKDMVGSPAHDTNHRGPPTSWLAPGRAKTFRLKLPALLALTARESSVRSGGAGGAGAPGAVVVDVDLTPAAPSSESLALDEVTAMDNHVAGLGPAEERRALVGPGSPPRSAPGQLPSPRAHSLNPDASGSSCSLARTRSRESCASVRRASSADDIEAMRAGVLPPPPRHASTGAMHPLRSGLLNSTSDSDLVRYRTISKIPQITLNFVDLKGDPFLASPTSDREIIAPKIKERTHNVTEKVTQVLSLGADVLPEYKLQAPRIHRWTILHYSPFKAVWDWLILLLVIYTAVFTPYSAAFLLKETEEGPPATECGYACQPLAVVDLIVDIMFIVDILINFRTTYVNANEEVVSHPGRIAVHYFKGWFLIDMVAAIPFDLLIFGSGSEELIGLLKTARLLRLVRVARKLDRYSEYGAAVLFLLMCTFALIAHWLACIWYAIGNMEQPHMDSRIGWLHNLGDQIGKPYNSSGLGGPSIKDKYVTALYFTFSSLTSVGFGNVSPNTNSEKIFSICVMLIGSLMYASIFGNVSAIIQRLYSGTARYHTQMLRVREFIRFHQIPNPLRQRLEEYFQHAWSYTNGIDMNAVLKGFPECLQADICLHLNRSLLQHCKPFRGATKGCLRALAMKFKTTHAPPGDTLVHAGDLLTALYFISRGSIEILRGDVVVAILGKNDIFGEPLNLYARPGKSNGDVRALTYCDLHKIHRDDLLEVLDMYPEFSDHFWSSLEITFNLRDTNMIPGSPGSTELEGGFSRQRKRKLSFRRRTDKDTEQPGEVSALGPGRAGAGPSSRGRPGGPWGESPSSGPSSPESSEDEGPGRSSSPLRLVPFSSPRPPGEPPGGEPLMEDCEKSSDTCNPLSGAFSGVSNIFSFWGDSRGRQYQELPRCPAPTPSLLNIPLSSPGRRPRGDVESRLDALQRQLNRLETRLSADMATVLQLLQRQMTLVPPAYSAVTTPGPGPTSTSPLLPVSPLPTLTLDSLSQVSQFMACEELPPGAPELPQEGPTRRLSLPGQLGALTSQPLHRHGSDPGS

| SMILES | hERG current change (%, negative = inhibition) at 10uM |
| --- | --- |
| C=CCc1cc(C=O)cc(OC)c1OCc1c(Cl)cccc1Cl | -16.6% |
| Cc1ccc(NC(=O)c2cc(C(=O)c3cc(Cl)ccc3O)cn(-c3ccc(C)cc3)c2=O)cc1 | 13.9% |
| COc1ccc(C(=O)Nc2cccnc2Cl)cc1OC | 11.7% |
| CCCCNC(=O)C1CCCN(S(=O)(=O)CC)C1 (stereo not drawn) | 13.3% |
| O=C(O)CC1S/C(=N/N=C/C=C/c2ccccc2[N+](=O)[O-])NC1=O (stereo not drawn) | 10.5% |
| Cn1cc(SCC(=O)Nc2ccc3c(c2)OCO3)c2ccccc21 | -22.4% |
| COc1ccc(S(=O)(=O)N2CCOCC2)cc1NC(=O)CCc1nc2ccccc2c(=O)[nH]1 | 21.5% |
| O=C(NC(=S)NNC(=O)c1cccs1)c1ccc(Br)o1 | 26.3% |
| CCc1cccc(NC(=S)N(CCCN2CCOCC2)C(C)c2cc3cccc(OC)c3o2)c1 (stereo not drawn) | 1.95% |
| CCC(C)(C)C1CCC2(CC1)NC(=O)N(CC(=O)NCCc1c[nH]c3ccccc13)C2=O (stereo not drawn) | -20.3% |
| CN(CC(=O)Nc1ccc(Cl)cc1)Cc1cc(=O)n2ccsc2n1 | -33.3% |
| CCn1ncc(/C=N/NS(=O)(=O)c2ccc(Cl)cc2)c1C | -5.88% |
| Cc1ccc(C(OCC(O)CN2CCCCC2)c2ccccc2)cc1 (stereo not drawn) | -86.6% |
| OCC1(Cc2ccc(F)cc2)CCCN(CCCC(F)(F)F)C1 (stereo not drawn) | -22.3% |
| COc1ccc(-c2cc3ccccc3oc2=O)cc1NC(=O)c1ccc(Br)o1 | -0.342% |
| Cc1cc(C(=O)Nc2ccccc2C)c2ccccc2n1 | 14.1% |
| CCOC(=O)Cc1cc(=O)[nH]c(/N=C(\N)Nc2ccc(C)c(C)c2)n1 | 9.07% |
| Cc1c(C(=O)N2CCCC2)c(S(=O)(=O)N2CCCCC2)c(C)n1C | -4.36% |
| C/C(=N\NC(=O)c1ccncc1)c1c(O)n(Cc2ccccc2)c(=O)[nH]c1=O | 12.1% |
| O=C(NCc1ccccc1Cl)c1ccncc1 | 13.7% |
| O=C(CN1C(=O)C2CC=CCC2C1=O)Nc1ccc(Br)cc1 (stereo not drawn) | -22.7% |
| CC(=O)Nc1ccccc1C(=O)C(=O)Nc1ccc(C(=O)N2CCOCC2)cc1 | 26.5% |

| SMILES | hERG current change (%, negative = inhibition) at 10uM |
| --- | --- |
| C/C(=N/NS(=O)(=O)c1ccccc1)c1ccc(NC(=O)C2CC2)cc1 | 15.1% |
| COCCn1c(=O)[nH]c2cc(C(=O)NCCN3CCN(c4ccccc4F)CC3)ccc2c1=O | 3.51% |
| CCOc1ccc(/C=N/n2c(SC)nnc(C(C)(C)C)c2=O)cc1 | 9.52% |
| CC(C)C1CC(O)(C2(O)CCCCC2)ON1 (stereo not drawn) | 0.709% |
| CCS(=O)(=O)N1CCN(c2ccc(S(=O)(=O)N3CCOCC3)cc2)CC1 | -12.8% |
| Nc1ncnc(Oc2cccc3cccnc23)c1[N+](=O)[O-] | 25.4% |
| Cc1ccc(-n2c(=O)cc(N3CC(C)CC(C)C3)[nH]c2=O)cc1 (stereo not drawn) | 23.7% |
| COc1ccc(C2CC(c3ccccc3)=NN2C(=O)CCCC(=O)O)cc1 (stereo not drawn) | 22.1% |
| C/C(CC(=O)Nc1ccccc1-c1ccccc1)=N\NC(=O)COc1ccc(C)cc1Br | -15.7% |
| COc1ccc(/C=C/C(=O)C2C(=O)C=C(C)OC2=O)cc1O (stereo not drawn) | -4.44% |
| CCc1nnc(NC(=O)c2cnccn2)s1 | 9.16% |
| COc1ccc(-n2c(SCC(=O)NC3CC3)nc3ccccc3c2=O)cc1OC | 2.79% |
| CN(Cc1nc(-c2ccc(Cl)cc2)no1)C(=O)CCN1C(=O)[C@H]2CC=CC[C@H]2C1=O | -21.9% |
| Cc1ccc(SCC(=O)N2N=CCC2c2ccccc2)cc1 (stereo not drawn) | -2.28% |
| COc1cccc2sc(Nc3nnc(-c4ccccc4Cl)o3)nc12 | -4.23% |
| S=C1CN=C(c2ccccc2)c2cc(Cl)ccc2N1 | 5.81% |
| CCOC(=O)CSc1nnc([C@H](Cc2ccccc2)NC(=O)OC(C)(C)C)o1 | -14.3% |
| Cc1ccc(C(=O)OCC(=O)Nc2ccc(Cl)cn2)s1 | 7.17% |
| CCn1c(Sc2ccc([N+](=O)[O-])cn2)nnc1-c1ccco1 | -66.5% |
| COc1ccc(N2C(=O)CNC2=S)cc1 | -2.5% |
| C=CCc1ccc(OCCCCNC2CCCC2)c(OC)c1.O=C(O)C(=O)O | -39.9% |
| Oc1c(Br)cc(/C=N/NC(=S)NCC2CCCO2)cc1Br (stereo not drawn) | 18.7% |

| SMILES | hERG current change (%, negative = inhibition) at 10uM |
| --- | --- |
| Cc1ccc(OCc2n[nH]c(=S)n2N)cc1C | 33.9% |
| Cc1ccc2c(CC(=O)NCCc3ccc(S(N)(=O)=O)cc3)coc2c1 | -2.43% |
| Cc1ccc(C)c(NS(=O)(=O)c2ccc(OCC(=O)NCc3ccccn3)cc2)c1 | -7.14% |
| C#CCOCCOCCOCCNc1nc(N2CCN(C(=O)C([C@@H](C)CC)n3cc(C(N)Cc4ccc(O)cc4)nn3)CC2)nc(N2CCN(C(=O)[C@H](CCC(=O)O)n3cc(C(N)CO)nn3)CC2)n1.Cl (stereo partly drawn) | 5.61% |
| NNc1nnnc2c1sc1nc(N3CCOCC3)c3c(c12)CCCC3 | 5.3% |
| CC1CC(C)CN(S(=O)(=O)CC23CCC(CC2=O)C3(C)C)C1 (stereo not drawn) | -0.236% |
| CCOCCCNC(=O)c1oc2ccc(S(=O)(=O)N3CCOCC3)cc2c1C | 17.9% |
| CC1CN(C(=O)c2ccccc2C(=O)c2ncc[nH]2)CC(C)O1 (stereo not drawn) | 9.31% |
| O=C(c1c[nH]c(C(=O)C(Cl)(Cl)Cl)c1)c1ccc(F)cc1F | -12.3% |
| COc1ccc(C2=NN(CCC(=O)NC3CCCCCC3)C(=O)CC2)cc1 | -15.1% |
| Cl.NC(CC(=O)OC1CCCCC1)C(=O)OC1CCCCC1 (stereo not drawn) | -0.88% |
| Cc1nn(C)c(C)c1S(=O)(=O)N(CC(=O)NCCN1CCOCC1)c1ccc(C(C)C)cc1 | -2.41% |
| COc1ccccc1CNC(=O)C1(C)Oc2cccnc2NC1=O (stereo not drawn) | 9.69% |
| O=c1c2ccccc2c(-c2ccccc2)nn1-c1ccc(Cl)c(Cl)c1 | 13.3% |
| Cc1cc(C)c(S(=O)(=O)NCC2CCC(C(=O)NCc3ccc4c(c3)OCO4)CC2)c(C)c1 (stereo not drawn) | -1.15% |
| O=C(/C=C/c1ccc(Cl)cc1)NC(=S)N1C[C@H]2C[C@H](C1)c1cccc(=O)n1C2 | -53.1% |
| COc1ccccc1CNC(=O)C1CCC(CNc2c(N3CCCCC3)c(=O)c2=O)CC1 (stereo not drawn) | 7.49% |
| COc1ccc(C(c2nnnn2C2CCCC2)N2CCC(C)CC2)c(OC)c1 (stereo not drawn) | -18.7% |
| CCOc1ccc(S(=O)(=O)NCc2ccc(OC)cc2)c2cccnc12 | -19.6% |
| CCn1c(SCC(=O)NC(=O)Nc2ccc3c(c2)OCCO3)nnc1-c1cccs1 | -5.31% |
| COc1ccc(NC(=O)CSc2nnc(N)s2)c([N+](=O)[O-])c1 | 5.58% |
| COc1ccc(CN2CC(=O)N(c3ccccc3C)C2=S)cc1OC | 20% |

| SMILES | hERG current change (%, negative = inhibition) at 10uM |
| --- | --- |
| Cc1ccc(S(=O)(=O)N(C)C(=O)NC(=O)NS(=O)(=O)c2ccccc2)cc1 | 12.7% |
| Cc1cccc(NCC(=O)N/N=C\c2ccccn2)c1 | 2.54% |
| Cc1cc(OCC(=O)Nc2ccccc2N2CCCC2)ccc1C(C)C | 10.9% |
| CSCC(=O)N1CCCC(CO)(Cc2ccccc2C)C1 (stereo not drawn) | -4.55% |
| S=C1N(c2ccccc2)C(c2cccc3ccccc23)N2CCCN12 (stereo not drawn) | -5.18% |
| O=C(C1COc2ccccc2O1)N1CCN(c2ccccn2)CC1 (stereo not drawn) | -26.7% |
| COc1cccc(/C=N/NC(=O)c2c(C)nc3ccc(Br)cn23)c1O | 4.54% |
| CC1=C(C)C(C)=C(C#N)C(=C(C#N)C#N)N1 | 4.18% |
| CC(=O)Nc1ccc(C(=O)CSc2nccc(=O)[nH]2)cc1 | 22.2% |
| COc1ccc(S(=O)(=O)Nc2ccc(N(C)C(C)=O)cc2)cc1 | 16.4% |
| CCN(CC)CCNC(=O)C12CC3CC(C)(CC(C)(C3)C1)C2.Cl | -7.72% |
| COCC(C)n1c(C)cc(C(=O)COC(=O)c2n[nH]c3ccccc23)c1C (stereo not drawn) | -0.626% |
| Cc1ccc2ncccc2c1NS(=O)(=O)c1ccccc1 | 13.5% |
| O=C(NCc1ccc(N2CCCC2=O)cc1)C1CCC(=O)N(Cc2ccccc2F)C1 (stereo not drawn) | -3.3% |
| C/C=C\C=C/C(=O)Nc1cccc(C2=NOC3(C2)C[C@H](C(N)=O)N(C(=O)CC)C3)c1 (stereo partly drawn) | -8.64% |
| CC(C)CC(OC(=O)c1nsc(Cl)c1Cl)C(=O)NCC1CCCO1 (stereo not drawn) | 18.8% |
| COc1cccc(CNC(=O)[C@@H](C)N2C(=O)N3CCc4c([nH]c5ccc(OC)cc45)C3(C)C2=O)c1 (stereo partly drawn) | 9.17% |
| CC(=O)Nc1cccc(-c2cnc3ccccc3n2)c1 | -9.95% |
| COc1cccc(CNn2cnnc2)c1OCc1ccccc1F | 6.85% |
| CCCNC(=O)c1ccc(CN2CCc3ccccc3C2)cc1 | -37.3% |
| CCc1ccc(NC(=O)COc2coc(CN3CCN(c4ccccc4)CC3)cc2=O)cc1 | 12.3% |
